# Results as given in PubChem BioAssay AID1346428 (National Center for Advancing Translational Sciences (NCATS), 2018).
# Screen size: about 48,000 compounds; about 1,200 (2.5%) were called active. Not shown: some 2% with an inconclusive outcome.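 The calls were made as follows: active = activation of at least 60% and not above a set upper limit (about 1 call in 100 departs from these limits); inconclusive = activation of 40% to 60%, or above that upper limit; inactive = activation under 40%.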 This is one part of the list.
# Target: Probable G-protein coupled receptor 32 (Homo sapiens) (UniProt O75388)
# Test: qHTS for Agonists of Human Resolvin D1 Receptor DRV1; also: 0% is about no effect
# Conditions: CHO-K1 GPR32 beta-arrestin PathHunter luminescence, 90 min; at 76.9 µM; stronger effect = higher value; zero percent set by DMSO-only wells
# Method in brief: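 Luminescent readout of beta-Gal complementation quantifies ligand-induced beta-arrestin association with GPR32 in CHO-K1 cells; 90 min compound incubation at 37 °C, detection 1 h at room temperature.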
# UniProt O75388, sequence (O75388 whole entry, looked up): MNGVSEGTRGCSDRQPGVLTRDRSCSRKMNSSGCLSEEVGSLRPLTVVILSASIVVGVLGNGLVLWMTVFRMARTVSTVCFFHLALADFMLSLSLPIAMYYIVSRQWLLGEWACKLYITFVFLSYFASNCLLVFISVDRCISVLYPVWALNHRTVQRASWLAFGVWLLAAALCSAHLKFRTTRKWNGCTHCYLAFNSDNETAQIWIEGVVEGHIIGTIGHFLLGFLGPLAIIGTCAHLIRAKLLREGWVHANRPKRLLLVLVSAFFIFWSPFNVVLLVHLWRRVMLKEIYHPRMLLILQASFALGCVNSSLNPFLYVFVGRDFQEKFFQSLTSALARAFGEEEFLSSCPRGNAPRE
row,SMILES,activation
1,CCOC(=O)C(Cc1ccccc1)NC(=O)CCc1c(C)nc2nc(C)nn2c1C (centres undefined),inactive: 20.4%
2,COc1ccc(NC(=O)c2sc3nc4c(cc3c2N)CCCCCC4)cc1,active: 73.8%
3,COc1cccc(-n2c(-c3ccccc3F)nc3c(cnn3-c3ccc(C)cc3)c2=O)c1,inactive: -3.45%
4,COCCNC(=O)CSc1nc2cc3c(cc2c(=O)n1CCCC(=O)NCc1ccc2c(c1)OCO2)OCO3,inactive: -10.2%
5,Cc1ccccc1OCc1nc2c3cnn(-c4ccccc4F)c3ncn2n1,inactive: -7.7%
6,Cc1ccccc1NC(=O)CSc1nc(-c2ccccc2)cn1-c1ccccc1F,inactive: -31.5%
7,O=C(NC1CCCC1)c1ccc2c(=O)n(Cc3ccccc3)c(SCc3cccc([N+](=O)[O-])c3)nc2c1,inactive: -8.2%
8,COc1ccc(CNC(=O)CSc2ncc3c(n2)-c2cc(Cl)ccc2N(Cc2ccccc2)S3(=O)=O)cc1,inactive: 2.49%
9,CCc1ccc(OCC(=O)Nc2cc(-c3ccc(C)cc3)no2)cc1,inactive: -3.33%
10,CCOC(=O)Cn1c(=O)cc(C(F)(F)C(F)(F)F)c2c(C)nn(CC)c21,inactive: -9.59%
11,COc1ccc(OCC(=O)Nc2ccc(Cl)c(-c3nc4ncccc4o3)c2)cc1,inactive: 11.5%
12,COC(=O)c1cc2sc(Cl)cc2n1CC(=O)Nc1cc(OC)cc(OC)c1,active: 88.5%
13,O=C1CN(C(=O)COc2ccccc2)C(c2ccc(F)cc2)c2cc(Br)ccc2N1 (centres undefined),inactive: -23.8%
14,COc1ccc(-c2nn(-c3ccc(F)cc3)c3c2cnc2ccc(F)cc23)cc1OC,inactive: -6.61%
15,Cc1ccc(NC(=O)CCCn2c(=O)c3cccn3c3ccccc32)cc1Cl,inactive: -7.38%
16,CCCc1nn2c(=O)cc(COC(=O)C3CCCCC3)nc2s1,inactive: 33%
17,COC(=O)c1ccccc1NC(=O)c1oc2ccc3c(c2c1C)C(=O)CC(C)(C)O3,inactive: -7.66%
18,O=C(NCc1nc2ccccc2n1Cc1ccccc1Cl)c1ccccc1,inactive: -24.6%
19,CCOc1ccc(CCNC(=O)Cn2ccc3cc(S(=O)(=O)N4CCCCC4)ccc32)cc1,inactive: 16%
20,COCCn1c(SCC(=O)c2c(C)[nH]c3ccccc23)nc2cc(C(=O)NC(C)C)ccc2c1=O,inactive: -7.22%
21,Cc1ccc(Cl)cc1NC(=O)Nc1cn(CC(C)C)c(=O)c2ccccc12,inactive: 6.04%

row,SMILES,activation
1,Cc1ccccc1CN1C(=O)c2ccccc2Sc2ccc(C(=O)NCc3ccccc3)cc21,inactive: -14.5%
2,O=C(Nc1ccccc1F)c1nc(SCc2ccccc2F)ncc1Cl,inactive: -4.73%
3,COc1cccc(CNC(=O)c2ccc3c(c2)N(Cc2ccc(F)cc2Cl)C(=O)c2ccccc2S3)c1,inactive: -19.3%
4,CCOC(=O)c1ccc(NC(=O)CSc2nnc(-c3ccncc3)n2-c2ccccc2)cc1,inactive: -1.84%
5,COc1ccc(-n2nc(C(=O)Nc3ccc(C)cn3)c3c4ccccc4n(C)c3c2=O)cc1Cl,inactive: -9.47%
6,Cc1cccc(C)c1NC(=O)Cn1c(=O)n(Cc2ccccc2Cl)c(=O)c2cccnc21,inactive: -3.26%
7,NC1(c2ccc(-c3nc4ccn5c(=O)[nH]nc5c4cc3-c3ccccc3)cc2)CCC1,inactive: -6.63%
8,Cc1ccc(-c2nc(S(=O)(=O)c3ccc(C)cc3)c(SCC(=O)c3ccccc3)o2)cc1,inactive: -23.3%
9,CCN(C(=O)CSc1nc2ccccc2n1Cc1ccccc1C#N)c1ccccc1,inactive: 1.14%
10,Cc1ccc(-n2c(=O)[nH]c3cc(C(=O)NCCc4ccccc4)ccc3c2=O)cc1,inactive: 6.68%
11,Cc1ccc2c(C)c(C(=O)NCC(c3ccc(Cl)cc3)N3CCOCC3)oc2c1 (centres undefined),inactive: -22.3%
12,COc1cc(NC(=O)C2CCN(c3nnc(C)c4c(C)n(-c5ccccc5)nc34)CC2)cc(OC)c1,inactive: -20.1%
13,Cc1ccc(NC(=O)NC(C)c2c(-n3cccc3)sc(C)c2C)cc1F (centres undefined),inactive: 4.31%
14,Cc1ccc2c(c1)c(=O)c1ccccc1n2CCCC(=O)Nc1ccc(Cl)cc1C,inactive: 13.7%
15,CCOC(=O)c1ccccc1NC(=O)c1cnn(-c2ccc(OC)cc2)c1C1CCN(C(=O)OC(C)(C)C)CC1,inactive: 1.73%
16,CCOc1ccc(CNC(=O)c2cnc3c(C)cccn3c2=O)cc1,inactive: -12.2%
17,COc1ccc(NC(=O)C2CCN(C(=O)c3sc4nc[nH]c(=O)c4c3C)CC2)cc1Cl,inactive: -15.2%
18,CN(CC(=O)Nc1ccc(Br)cc1)S(=O)(=O)c1cccc2nsnc12,inactive: 4.02%
19,Cc1cc2oc(C(=O)N(Cc3ccc(N(C)C)cc3)CC3CCCO3)c(C)c2cc1Cl (centres undefined),inactive: -23.9%
20,CN1C(=O)Cc2cc(S(=O)(=O)CCC(=O)N3CCN(c4ccc(Cl)cc4)CC3)ccc21,inactive: 41.2%
21,O=C(O)c1ccc(OCCN2CCCCC2)cc1,inactive: 4.32%

row,SMILES,activation
1,COc1ccccc1NC(=O)CSc1nc2c(oc3ccccc32)c(=O)n1-c1ccccc1F,inactive: 7.23%
2,CCOC(=O)C1CCN(c2nc3ccccc3nc2Cl)CC1,inactive: 43.2%
3,COc1ccc(NC(=O)c2oc3ccccc3c2NC(=O)c2cc(C)cc(C)c2)c(OC)c1,inactive: -15.4%
4,CC(=O)Nc1cccc(NC(=O)CSc2nccn2C2CCCC2)c1,inactive: 7.91%
5,O=C(CN1C(=O)c2cccc3cccc1c23)Nc1cccc(F)c1,inactive: 12.4%
6,Cc1cc(C)c(NC(=O)C(=O)NCC(c2cccnc2)N2CCN(c3ccccc3F)CC2)c(C)c1 (centres undefined),inactive: -11.9%
7,CCc1cccc(NC(=O)c2cc3c(s2)-c2ccccc2OC3)c1,inactive: -5.34%
8,C=Cc1ccc(Cn2c(C)c(CNCc3ccc(SC)cc3)c(C(=O)O)c2C)cc1,inactive: -0.807%
9,CN(Cc1ccccc1)c1ccc(-c2nc(-c3ccccc3)no2)cc1[N+](=O)[O-],inactive: 0.001%
10,Cc1ccccc1NC(=O)CSC1=Nc2ccccc2C2=NC(Cc3ccccc3)C(=O)N12 (centres undefined),inactive: -7.07%
11,Cc1ccc(OCc2nc(C#N)c(NCCc3ccccc3)o2)cc1,inactive: -12.5%
12,COC(=O)c1ccc2c(=O)n3nc(Nc4cc(OC)ccc4OC)sc3nc2c1,inactive: -2.38%
13,Cc1ccccc1/C=C/C1=NCCN1,inactive: -3.56%
14,COc1ccc(Cl)cc1NC(=O)CSc1nnc2[nH]c(=O)cc(-c3ccccc3)n12,inactive: 11.6%
15,Cc1ccc2[nH]c(=O)c3cc(C(=O)N(CCCOC(C)C)Cc4ccco4)sc3c2c1,inactive: -10.4%
16,CCC(Sc1ncc(S(=O)(=O)c2ccc(Cl)cc2)c(=O)[nH]1)C(=O)Nc1ccc(OC)cc1 (centres undefined),inactive: -3.28%
17,CCOC(=O)C1CCCN(S(=O)(=O)c2ccc3c(c2)N(C)C(=O)CC(=O)N3C)C1 (centres undefined),inactive: 7.2%
18,COc1cc(-c2nnc(SCC(=O)Nc3cccc(C#N)c3)o2)cc(OC)c1OC,inactive: -9.63%
19,COc1ccc(CCNC(=O)CN2C(=O)COc3ccc(S(=O)(=O)N4CCCCCC4)cc32)cc1OC,inactive: -0.34%
20,COCCCNC(=O)Cn1c(=O)n(-c2ccc(Cl)cc2)c(=O)c2c3c(sc21)CCCCC3,active: 60.1%
21,CCc1ccc(CNC(=O)c2cnc3sc(N(CC)CC)nn3c2=O)cc1,inactive: 0.0345%

row,SMILES,activation
1,O=C(Cn1ncc2c3ccccc3n(Cc3ccc(Cl)cc3)c2c1=O)NC1CCCCCC1,inactive: 4.18%
2,CCc1ccccc1NC(=O)C(=O)NCCc1sc(-c2cccc(C)c2)nc1C,inactive: 24.6%
3,CCOc1ccc(-n2c(=O)c3sc4ccccc4c3n(Cc3ccc(F)cc3)c2=O)cc1,inactive: 1.98%
4,Cc1ccc(NC(=O)c2ccc(CN3CC(=O)N4CCCCC4C3=O)cc2)cc1C (centres undefined),inactive: -14.6%
5,Cc1ccc(Cl)cc1N1CCN(S(=O)(=O)c2ccc3c(c2)CC(=O)N3C)CC1,inactive: -0.995%
6,CCCCC(CC)Cn1c(Oc2ccccc2)nc2c1c(=O)n(C)c(=O)n2C (centres undefined),inactive: 14.1%
7,CC(C)c1cnc2c(c1SCC(=O)Nc1cccc([N+](=O)[O-])c1)c(=O)n(C)c(=O)n2C,inactive: -23%
8,CCn1c(SCC(=O)Nc2ccc(C)c(C)c2)nnc1-c1nonc1NC(C)=O,inactive: -31.5%
9,COCCCNc1ncnc2c1nnn2C,inactive: -19.4%
10,Cc1ccc(N(CC(=O)Nc2ccc(OC(F)(F)F)cc2)S(=O)(=O)c2c(C)noc2C)cc1,inactive: 40.4%
11,Cc1[nH]c2c(C)cccc2c1CCNC(=O)c1cc2ccccc2oc1=O,inactive: -13.2%
12,Cc1cccc(-c2[nH]c(C(C)(C)C)nc2-c2ccc3nccnc3c2)n1,inactive: -8.51%
13,O=c1oc2ccc3ccccc3c2cc1-c1nnc(Nc2cc(C(F)(F)F)ccc2Cl)s1,inactive: 4.53%
14,Cc1ccc(O)c(NC(=O)c2nc3nc(C)cc(C(F)F)n3n2)c1,inactive: 2.44%
15,COCCn1c(SCC(=O)c2c[nH]c3ccccc23)nc2cc(C(=O)NCC(C)C)ccc2c1=O,inactive: 4.99%
16,COc1cccc(N2CCN(C(=O)c3nc(-c4ccc(Cl)cc4)n4c3CCCCC4)CC2)c1,inactive: -15%
17,CCc1ccc(CNC(=O)c2cc3c(s2)-c2ccccc2OC3)cc1,inactive: -1.44%
18,Cc1nc(N2CCCC2)ncc1C(=O)NCc1ccccc1Cl,inactive: 1.03%
19,CCc1nnc2n1N(C(C)=O)C(c1ccc(C(C)(C)C)cc1)=C(C(C)=O)S2,inactive: -43.9%
20,COc1cc(NC(=O)CSc2nc3nc(C)c(Cc4ccccc4)c(C)n3n2)cc(OC)c1OC,inactive: -3.26%
21,COC(=O)c1ccc(NC(=O)C2CCN(S(=O)(=O)c3ccc4c(c3)CCCN4C(C)=O)CC2)cc1,inactive: 19.8%
